{"source": "the supplement of paper PMC9446081", "note": "In all, about 39,000 compounds went through this assay and about 220 (0.56%) showed activity. This is one part of the list.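 Also: static incubation at 37 °C against the wild-type strain, values averaged over two biological replicates.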", "data": [{"tested_on": "Escherichia coli K-12 BW25113", "test": "relative growth (OD600 normalised to plate interquartile mean) (fraction); higher = less growth inhibition, active = 0.2 or less", "settings": "50 µM; LB; incubation time: overnight (16-24 h)", "values": [{"molecule": "C[C@@H]1CN([C@@H](C)CO)C(=O)Cc2cc(NS(C)(=O)=O)ccc2O[C@H]1CN(C)S(=O)(=O)c1ccc(F)cc1", "relative growth": "inactive: 0.988"}, {"molecule": "CC(C)NC(=O)N(C)C[C@H]1Oc2c(NC(=O)C3CCOCC3)cccc2C(=O)N([C@@H](C)CO)C[C@@H]1C", "relative growth": "inactive: 0.946"}, {"molecule": "O=C(N[C@@H]1CC[C@H](CCNS(=O)(=O)c2ccc(F)cc2)O[C@@H]1CO)C1CC1", "relative growth": "inactive: 0.991"}, {"molecule": "Cc1noc(C)c1S(=O)(=O)Nc1ccc2c(c1)CC(=O)N([C@H](C)CO)C[C@@H](C)[C@H](CN(C)Cc1ccc3c(c1)OCO3)O2", "relative growth": "inactive: 1"}, {"molecule": "CCCNC(=O)[C@@]1(Sc2ccc(C)cc2)CC(=O)N(Cc2ccccc2Cl)[C@@H]1c1ccc(CO)cc1I", "relative growth": "inactive: 1.01"}, {"molecule": "C[C@H]1CN([C@@H](C)CO)C(=O)Cc2cc(NS(C)(=O)=O)ccc2O[C@@H]1CN(C)C(=O)Nc1ccc2c(c1)OCO2", "relative growth": "inactive: 1.01"}, {"molecule": "C[C@H](CO)N1C[C@H](C)[C@@H](CN(C)C(=O)Nc2ccc(C(F)(F)F)cc2)Oc2ccc(NC(=O)Cn3cnnn3)cc2C1=O", "relative growth": "inactive: 0.955"}, {"molecule": "CS(=O)(=O)O.CSc1ccc2c(c1)C(N1CCN(C)CC1)Cc1ccccc1S2", "note": "(centres undefined)", "relative growth": "inactive: 0.643"}, {"molecule": "O=C1CN(S(=O)(=O)Cc2ccccc2)C[C@@H]2[C@H](c3ccc(C#Cc4ccc(F)cc4)cc3)[C@H](CO)N12", "relative growth": "inactive: 1.04"}, {"molecule": "C[C@@H]1CN([C@@H](C)CO)C(=O)Cc2cc(NC(=O)Nc3ccc(C(F)(F)F)cc3)ccc2O[C@H]1CN(C)S(C)(=O)=O", "relative growth": "inactive: 0.972"}, {"molecule": "C[C@@H]1CN([C@@H](C)CO)C(=O)c2cccc(NC(=O)Nc3ccc(C(F)(F)F)cc3)c2O[C@@H]1CN(C)Cc1ccc(-c2ccccc2)cc1", "relative growth": "inactive: 1.08"}, {"molecule": "Cc1noc(C)c1NC(=O)N(C)C[C@@H]1OCCCC[C@@H](C)Oc2ccc(NC(=O)NC3CCCCC3)cc2C(=O)N([C@H](C)CO)C[C@@H]1C", "relative growth": "inactive: 0.938"}, {"molecule": "CC1(C)SC2C(NC(=O)C(C(=O)[O-])c3ccccc3)C(=O)N2C1C(=O)[O-].[Na+].[Na+]", "note": "(centres undefined)", "relative growth": "inactive: 1.1"}, {"molecule": "CC[N+](CC)(CC)CCOc1ccc(/C=C/c2ccccc2)cc1", "relative growth": "inactive: 1.01"}, {"molecule": "NCCCCCC(=O)O", "relative growth": "inactive: 0.989"}, {"molecule": "C[C@H](CO)N1C[C@H](C)[C@H](CN(C)Cc2ccc(Cl)c(Cl)c2)Oc2ccc(NC(=O)Nc3cccc4ccccc34)cc2C1=O", "relative growth": "inactive: 0.991"}, {"molecule": "COc1ccc(NC(=O)Nc2ccc3c(c2)C(=O)N([C@@H](C)CO)C[C@H](C)[C@H](CN(C)C(=O)C2CCCCC2)OCCCC[C@@H](C)O3)cc1", "relative growth": "inactive: 1"}, {"molecule": "O=C1N(Cc2ccccc2)c2ccccc2[C@@H]2OC(c3ccc(OCCCO)cc3)=N[C@]12CCS(=O)(=O)c1ccccc1", "relative growth": "inactive: 1.02"}, {"molecule": "C[C@H](CO)N1C[C@H](C)[C@@H](CN(C)Cc2ccc(C(F)(F)F)cc2)Oc2ccc(NC(=O)Nc3ccc(C(F)(F)F)cc3)cc2CC1=O", "relative growth": "inactive: 1.08"}, {"molecule": "COc1ccc(CN(C)C[C@H]2OCCCC[C@H](C)Oc3ccc(NC(=O)NC4CCCCC4)cc3C(=O)N([C@H](C)CO)C[C@@H]2C)cc1", "relative growth": "inactive: 1.02"}, {"molecule": "Cc1noc(C)c1NC(=O)Nc1ccc2c(c1)C(=O)N([C@@H](C)CO)C[C@@H](C)[C@H](CN(C)C(=O)Nc1ccccc1)OCCCC[C@@H](C)O2", "relative growth": "inactive: 1.01"}, {"molecule": "CN(C)CCCNC(=O)C[C@@H]1CC[C@@H]2[C@@H](COc3ccc(NC(=O)NC4CCCC4)cc3C(=O)N2C)O1", "relative growth": "inactive: 1.01"}, {"molecule": "CCS(=O)(=O)N1[C@@H](CO)[C@@H](c2ccccc2)C12CN(C(=O)CN(C)C)C2", "relative growth": "inactive: 1.02"}, {"molecule": "Cc1noc(C)c1S(=O)(=O)Nc1ccc2c(c1)CC(=O)N([C@H](C)CO)C[C@@H](C)[C@H](CN(C)S(C)(=O)=O)O2", "relative growth": "inactive: 0.994"}, {"molecule": "O=C(NCCCN1CCCC1=O)c1cccnc1", "relative growth": "inactive: 1.01"}, {"molecule": "C[C@@H]1CN([C@H](C)CO)C(=O)c2cccc(NC(=O)CCCCCC(=O)Nc3ccccc3N)c2O[C@H]1CN(C)C(=O)Nc1ccc(C(F)(F)F)cc1", "relative growth": "inactive: 0.954"}, {"molecule": "N[C@@H](C(=O)N[C@@H]1C(=O)N2C(C(=O)O)=C(Cl)CS[C@H]12)c1ccccc1", "relative growth": "active: 0.0303"}, {"molecule": "C[C@@H]1CN([C@@H](C)CO)S(=O)(=O)c2ccc(/C=C/c3ccccc3)cc2O[C@H]1CN(C)C(=O)Nc1cc(F)ccc1F", "relative growth": "inactive: 1.04"}, {"molecule": "C[C@@H]1CN([C@H](C)CO)C(=O)c2cc(C#CCN(C)C)cnc2O[C@H]1CN(C)C(=O)c1cnccn1", "relative growth": "inactive: 0.977"}, {"molecule": "CC(C)CC#Cc1cnc2c(c1)C(=O)N([C@@H](C)CO)C[C@@H](C)[C@@H](CN(C)C(=O)CCN1CCCCC1)O2", "relative growth": "inactive: 0.965"}, {"molecule": "C[C@H]1CN([C@@H](C)CO)C(=O)c2cccc(NC(=O)c3ccc(-c4nccs4)cc3)c2O[C@@H]1CN(C)C(=O)Nc1ccc(F)cc1", "relative growth": "inactive: 0.981"}, {"molecule": "C[C@@H]1CN([C@@H](C)CO)C(=O)CCCn2cc(nn2)CO[C@H]1CN(C)Cc1ccc2c(c1)OCCN2C", "relative growth": "inactive: 1.01"}, {"molecule": "C[C@H](CO)N1C[C@H](C)[C@H](CN(C)S(=O)(=O)c2cn(C)cn2)Oc2c(NC(=O)C3CCCCC3)cccc2C1=O", "relative growth": "inactive: 1.02"}, {"molecule": "Cn1cc(N2C[C@]3(CCN(S(C)(=O)=O)C3)CC2=O)cn1", "relative growth": "inactive: 0.97"}, {"molecule": "Cc1ccc(S(=O)(=O)Nc2ccc3c(c2)C(=O)N([C@@H](C)CO)C[C@@H](C)[C@@H](CN(C)Cc2ccc(C(F)(F)F)cc2)OCCCC[C@H](C)O3)cc1", "relative growth": "inactive: 1"}, {"molecule": "Nc1nc(=O)c2ncn(CCC(CO)CO)c2[nH]1", "relative growth": "inactive: 1"}, {"molecule": "C[C@@H]1CCCCO[C@@H](CN(C)Cc2ccc3c(c2)OCO3)[C@@H](C)CN([C@H](C)CO)C(=O)c2cc(NS(=O)(=O)c3ccccc3)ccc2O1", "relative growth": "inactive: 1.01"}, {"molecule": "Cn1c2c(c(=O)n(C)c1=O)/N=N\\c1c(c(=O)n(C)c(=O)n1C)/N=N\\2", "relative growth": "inactive: 0.997"}, {"molecule": "C[C@@H]1CN([C@@H](C)CO)C(=O)c2cccc(NS(=O)(=O)c3ccc(Cl)cc3)c2O[C@H]1CN(C)S(=O)(=O)c1cn(C)cn1", "relative growth": "inactive: 0.989"}, {"molecule": "COC(=O)C1=C2CC[C@@H](COC(=O)NCCCCCC(=O)NO)NC(=O)N[C@H](Cc3ccccc3)c3cn(nn3)C[C@H](Cc3ccccc3)NC(=O)c3oc(c(C(=O)OC)c3C(=O)OC)CC[C@@H](COC(=O)NCCCCCC(=O)NO)NC(=O)N[C@H](Cc3ccccc3)c3cn(nn3)C[C@H](Cc3ccccc3)NC(=O)C(=C1C(=O)OC)O2", "relative growth": "inactive: 0.992"}, {"molecule": "C[C@H](CO)N1C[C@H](C)[C@@H](CN(C)Cc2ccc(Oc3ccccc3)cc2)Oc2ccc(NC(=O)Nc3ccc4c(c3)OCO4)cc2CC1=O", "relative growth": "inactive: 0.988"}, {"molecule": "C[C@@H]1CN([C@@H](C)CO)C(=O)c2cc(NS(=O)(=O)c3cn(C)cn3)ccc2O[C@H]1CN(C)CC1CC1", "relative growth": "inactive: 0.993"}, {"molecule": "CC(C)NC(=O)Nc1ccc2c(c1)C(=O)N([C@@H](C)CO)C[C@H](C)[C@H](CN(C)Cc1ccccc1)OCCCC[C@H](C)O2", "relative growth": "inactive: 0.994"}, {"molecule": "CC1(C)CCC2(C)CCC3(C)C(=CCC4C5(C)CCC(O)C(C)(C)C5CCC43C)C2C1", "note": "(stereo not drawn) [beta-AMYRIN]", "relative growth": "inactive: 1.13"}, {"molecule": "COC(=O)C1=C2CC[C@H](CO)NC(=O)N[C@H](Cc3ccccc3)C(=O)NCc3cn(nn3)C[C@H](Cc3ccccc3)NC(=O)c3oc(c(C(=O)OC)c3C(=O)OC)CC[C@H](CO)NC(=O)N[C@H](Cc3ccccc3)C(=O)NCc3cn(nn3)C[C@H](Cc3ccccc3)NC(=O)C(=C1C(=O)OC)O2", "relative growth": "inactive: 1.01"}, {"molecule": "O=c1/c(=C\\c2ccc(F)cc2)sc2n1CCN=2", "relative growth": "inactive: 0.929"}, {"molecule": "C[C@@H]1CCCCO[C@@H](CN(C)C(=O)NC2CCCCC2)[C@H](C)CN([C@H](C)CO)C(=O)c2cc(NC(=O)Nc3cccc4ccccc34)ccc2O1", "relative growth": "inactive: 0.994"}, {"molecule": "O=C(C[C@@H]1C[C@@H]2c3cc(NC(=O)Cc4ccncc4)ccc3O[C@@H]2[C@@H](CO)O1)NCc1cccc(F)c1", "relative growth": "inactive: 0.993"}, {"molecule": "C[C@H]1CCCCO[C@H](CN(C)Cc2ccc(C(F)(F)F)cc2)[C@@H](C)CN([C@@H](C)CO)C(=O)c2cc(NC(=O)NC3CCCCC3)ccc2O1", "relative growth": "inactive: 0.981"}, {"molecule": "C[C@@H]1CN([C@H](C)CO)C(=O)c2cc(C#CCC3CCCC3)cnc2O[C@H]1CN(C)C(=O)c1cnccn1", "relative growth": "inactive: 1.04"}, {"molecule": "Nc1nnc(C(=O)c2ccccc2N)s1", "relative growth": "inactive: 0.951"}, {"molecule": "COc1ccc(NC(=O)Nc2ccc3c(c2)C(=O)N([C@@H](C)CO)C[C@H](C)[C@@H](CN(C)Cc2ccncc2)OCCCC[C@H](C)O3)cc1", "relative growth": "inactive: 1.01"}, {"molecule": "COc1ccc2c3c([nH]c2c1)[C@@H](CO)N(C[C@]13CN(CCc2ccccc2)C1)C(=O)CN1CCOCC1", "relative growth": "inactive: 0.982"}, {"molecule": "O=C(C[C@@H]1CC[C@@H]2[C@H](COC[C@H](O)CN2Cc2ccccc2F)O1)N[C@@H]1CCN(Cc2ccccc2)C1", "relative growth": "inactive: 0.953"}, {"molecule": "COCCN1CCNCC1", "relative growth": "inactive: 0.963"}, {"molecule": "N#C[C@@H]1[C@H](c2ccc(C#Cc3ccccn3)cc2)[C@@H](CO)N1C(=O)CN1CCOCC1", "relative growth": "inactive: 1.03"}, {"molecule": "Cc1ccc(S(=O)(=O)Nc2ccc3c(c2)C(=O)N([C@H](C)CO)C[C@H](C)[C@@H](CN(C)C(=O)Cc2ccccc2)OCCCC[C@@H](C)O3)cc1", "relative growth": "inactive: 1.05"}, {"molecule": "O=C(CCCCC(=O)N/N=C/[C@H](O)[C@@H](O)[C@H](O)[C@H](O)CO[C@H]1O[C@H](CO)[C@H](O)[C@H](O)[C@H]1O)NO", "relative growth": "inactive: 1.02"}, {"molecule": "C[C@H]1CCCCO[C@H](CN(C)C(=O)Nc2cccc3ccccc23)[C@@H](C)CN([C@@H](C)CO)C(=O)c2cc(NC(=O)Nc3cccc4ccccc34)ccc2O1", "relative growth": "inactive: 1.04"}]}]}
